Results on 11 molecules are retold here after the supplement of paper PMC9174493.

Structures are written as SMILES. Some of the results follow. Single values of this set are uncertain. Values with irradiation are relative to irradiated vehicle.
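Also: viability correction based on the alamar blue assay, with concentrations leaving 10% survival or less dropped.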

This test deals with A549-Dual. Put plainly: NF-kB reporter (SEAP) activity, viability-corrected, relative to vehicle (fold change vs vehicle); higher = more activation of STING-IRF / NF-kB immune response reporter. The note with it: 10 µM; irradiation: 8 Gy/4 fr.
On to `COc1cnc(NS(=O)(=O)c2ccc(N)cc2)nc1` [Sulfameter], for which the NF-kB reporter came out at 0.736.
For `NS(=O)(=O)c1cc(C2(O)NC(=O)c3ccccc32)ccc1Cl` (stereo unspecified) [Chlorthalidone], the NF-kB reporter is 1.24.
For `C[N+](C)(CCOc1ccccc1)Cc1ccccc1.O=C([O-])c1cc2ccccc2cc1O` [Bephenium Hydroxynaphthoate], the NF-kB reporter worked out at 0.884.
As for `Br.CN1CCCC1Cc1c[nH]c2ccc(CCS(=O)(=O)c3ccccc3)cc12` (stereo unspecified) [Eletriptan HBr], the NF-kB reporter was 0.534.
The same measure for `COC(=O)NC(C(=O)NC(Cc1ccccc1)C(O)CN(Cc1ccc(-c2ccccn2)cc1)NC(=O)C(NC(=O)OC)C(C)(C)C)C(C)(C)C` (stereo unspecified) [Atazanavir]: 0.772.
The same measure for `O=C(O)CCn1c2c(c3ccccc31)CC(NS(=O)(=O)c1ccc(F)cc1)CC2` (stereo unspecified) [Ramatroban]: 0.928; for `O=C(NCc1c(F)cc(F)cc1F)c1cn2c(c(O)c1=O)C(=O)N1C3CCC(C3)OC1C2` (stereo unspecified) [Bictegravir]: 1.19; for `CC1(C)CC(=O)CC(C)(C)N1` [TriacetonaMine]: 1.28.
To `CCN(CC)C(=O)Nc1ccc(OCC(O)CNC(C)(C)C)c(C(C)=O)c1.Cl` (stereo unspecified) [Celiprolol hydrochloride] belongs 0.923.
Take `O=C(NCC1CN(c2ccc(N3CCOCC3=O)cc2)C(=O)O1)c1ccc(Cl)s1` (stereo unspecified) [Rivaroxaban]: the NF-kB reporter stood at 0.812.
To `CC1CC(C(=O)O)C2CCC3(C)C(=CCC4C5(C)CCC(O)C(C)(C)C5CCC43C)C2C1C` (stereo unspecified) [Ursolic Acid] belongs 2.94.
